± gives the standard deviation of the averaged measurements. The full ranking holds about 33,000 sequences; the median of “E-score (dimensionless, -0.5 to 0.5)” is about -0.046, and the highest 2% start at about 0.36. Some of the results follow.
tested on: T1, SpTbr T-box DNA-binding domain (GST fusion); test: PBM E-score of 8-mer (E-score (dimensionless, -0.5 to 0.5)); Tbr is Tbrain of the sea star Patiria miniata (Pm) or the sea urchin Strongylocentrotus purpuratus (Sp); higher = stronger binding preference; most listed sequences are background and not binding sites; conditions: the construct has about 5 more residues each side
T1 sequence: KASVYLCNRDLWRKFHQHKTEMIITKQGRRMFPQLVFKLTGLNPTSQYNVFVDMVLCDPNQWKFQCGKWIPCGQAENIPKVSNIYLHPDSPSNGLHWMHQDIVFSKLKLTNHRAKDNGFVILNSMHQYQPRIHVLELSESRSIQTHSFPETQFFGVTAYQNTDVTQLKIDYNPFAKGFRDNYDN
Summary of the method: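 Universal Agilent oligonucleotide arrays, made double-stranded by primer extension, were incubated with 200 nM GST-fused Tbr T-box DNA-binding domain in PBS (pH 7.5). The protein was expressed in BL21 E. coli at 20 °C and purified by glutathione affinity chromatography. After scanning and quantification, the Universal PBM Analysis Suite assigned an enrichment E-score to each ungapped 8-mer, averaged over duplicate arrays.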

Row | Sequence | PBM E-score of 8-mer
1 | CAGTGCCA | 0.1526 ± 0.00012
2 | ATCAGTCA | -0.161 ± 0.064
3 | ATGAACTC | -0.16 ± 0.037
4 | CTCTTAGC | 0.081 ± 0.038
5 | GAATAACA | 0.173 ± 0.045
6 | AGGAGAAA | -0.142 ± 0.051
7 | CTCTATGA | -0.107 ± 0.033
8 | AAATTGCG | 0.0459 ± 0.085
9 | AATAGACA | -0.00955 ± 0.034
10 | GACCACTA | -0.0501 ± 0.019
11 | GTGTACAA | 0.0756 ± 0.0062
12 | ACCGGAGT | -0.0199 ± 0.04
13 | GGCTTTAC | -0.126 ± 0.075
14 | ACGCTCCC | 0.0294 ± 0.062
15 | AAGCCATA | -0.172 ± 0.062
16 | GAACGGTC | 0.142 ± 0.024
17 | TCTTTTCA | -0.0789 ± 0.052
18 | ATTACCAC | 0.21 ± 0.013
19 | AGGAAAAT | -0.182 ± 0.018
20 | AATATATC | -0.253 ± 0.041
21 | GAAGCTTA | -0.213 ± 0.012
22 | AACTGACA | 0.303 ± 0.024

Row | Sequence | PBM E-score of 8-mer
23 | CTATGTAC | -0.245 ± 0.085
24 | GAGACGGC | -0.0533 ± 0.024
25 | CGGCACCA | 0.18 ± 0.056
26 | GATTAAGA | -0.0555 ± 0.026
27 | GGATCAGA | -0.201 ± 0.054
28 | AATACCAA | -0.09091 ± 0.00071
29 | AACTAATC | -0.184 ± 0.048
30 | AACAAGAG | -0.0913 ± 0.05
31 | CATGCCAC | 0.195 ± 0.055
32 | AAAATTAA | -0.08 ± 0.041
33 | CTTTCACA | 0.44384 ± 0.0002
34 | GCGGCCTA | 0.0469 ± 0.022
35 | CTACTCAG | -0.203 ± 0.072
36 | TACGTGAA | 0.0338 ± 0.073
37 | CTAAGGGA | -0.162 ± 0.0075
38 | AATGCCTG | -0.0548 ± 0.018
39 | AGCGGTCC | -0.175 ± 0.0031
40 | CCCGACGG | -0.0255 ± 0.11
41 | ATAAGTTC | -0.0968 ± 0.0042
42 | TATCGCCA | 0.25 ± 0.013
43 | CATCACAA | 0.204 ± 0.042
44 | TATCGACA | 0.289 ± 0.017

Row | Sequence | PBM E-score of 8-mer
45 | ACAAGTCT | 0.108 ± 0.023
46 | AGACATAT | -0.0648 ± 0.081
47 | CACTCGTC | 0.17 ± 0.042
48 | GAACTACA | 0.0335 ± 0.0052
49 | GTGATCCA | 0.108 ± 0.054
50 | AAAGCCGG | -0.0543 ± 0.01
51 | AGCGGCGC | -0.0425 ± 0.033
52 | CGACATCA | -0.062 ± 0.0075
53 | GGGAGCCA | -0.16 ± 0.016
54 | AGATAGTA | -0.0632 ± 0.013
55 | GCCCTTAA | -0.0893 ± 0.13
56 | GAAGGGTC | -0.132 ± 0.03
57 | CGGGCAAC | -0.113 ± 0.063
58 | GTACCACA | -0.11 ± 0.062
59 | CATAATAG | -0.164 ± 0.03
60 | AGCTTCAT | -0.0645 ± 0.016
61 | CGACCCGC | 0.0932 ± 0.075
62 | CCATATCA | -0.00441 ± 0.0051
63 | ACGCCTGG | 0.22 ± 0.026
64 | GTTTTTTA | -0.177 ± 0.01
65 | CCGGTAGG | -0.0772 ± 0.028
66 | GCTTCTCA | 0.0746 ± 0.007

Row | Sequence | PBM E-score of 8-mer
67 | CACTCGGC | 0.143 ± 0.021
68 | AGTCTTTC | -0.115 ± 0.032
69 | AACTACTC | 0.0265 ± 0.012
70 | CCTCGGGA | -0.0609 ± 0.073
71 | AACTTTAC | 0.18 ± 0.033
72 | ATGCACCA | -0.193 ± 0.019
73 | AAGCGAAT | -0.0981 ± 0.015
74 | GGATACCC | -0.32 ± 0.087
75 | CGCGTCCA | 0.0205 ± 0.019
76 | CGCCTTTC | 0.171 ± 0.013
77 | ATAAATGA | 0.0153 ± 0.068
78 | TAATTGAA | -0.0584 ± 0.097
79 | AGACGAAA | -0.224 ± 0.0093
80 | CCAGCGCC | 0.151 ± 0.039
81 | AATCCCAT | -0.202 ± 0.0064
82 | CGAGATCG | 0.175 ± 0.058
83 | GATCCCGC | 0.0824 ± 0.045
84 | CCGAGTCC | -0.112 ± 0.0067
85 | AAGATGCA | -0.103 ± 0.022
86 | GGTCGAAC | 0.177 ± 0.019

— the supplement of paper PMC4166925
